Some of the results follow. Sequences were assembled here from the parent chain. Values near 0.05 are background.
B1: TEV protease; numbered along this chain (parent)
chain: MGESLFKGPRDYNPISSSICHLTNESDGHTTSLYGIGFGPFIITNKHLFRRNNGTLVVQSLHGVFKVKDTTTLQQHLVDGRDMIIIRMPKDFPPFPQKLKFREPQREERICLVTTNFQTKSMSSMVSDTSCTFPSGDGIFWKHWIQTKDGQCGSPLVSTRDGFIVGIHSASNFTNTNNYFTSVPKNFMELLTNQEAQQWVSGWRLNADSVLWGGHKVFMVKPEEPFQPVKEATQL

Variants of: B1
Assay: raw area under fraction-flipped curve 0-4 h after induction (AUC4h, not background-subtracted), DNA-recorder readout of cleavage of the substrate (dimensionless); higher = more cleavage of the substrate by the protease variant
Details: temperature: 34 °C; time window: 0-4 h after rhamnose induction
Method: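 In vivo DNA recorder in E. coli TOP10(DE3) ΔrhaA at 34 °C. Each TEVp single-site mutant (parent TEVp 0) is paired with a single-site variant of the 7-mer TEVs (canonical ENLYFQ|S). The substrate sits between flexible linkers in a Bxb1-sfGFP-TEVs-SsrA fusion, so cleavage stabilises Bxb1 and speeds flipping of a recombination array, read by NGS. The value is the raw area under the fraction-flipped curve over 0-4 h after rhamnose induction (AUC4h), with ≥20 reads per time point. It is not background-subtracted; inactive controls average about 0.047.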
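Also: Bxb1 expression induced with 0.2% (w/v) L-rhamnose at OD600 near 0.5, cultures sampled hourly, flipped fraction per protease–substrate barcode pair counted by paired-end Illumina sequencing.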

Row | Variant | area with substrate CNLYFQS | area with substrate DNLYFQS | area with substrate GNLYFQS | area with substrate INLYFQS | area with substrate LNLYFQS | area with substrate MNLYFQS | area with substrate NNLYFQS | area with substrate TNLYFQS | area with substrate VNLYFQS | area with substrate WNLYFQS | area with substrate FNLYFQS | area with substrate HNLYFQS | area with substrate KNLYFQS | area with substrate QNLYFQS | area with substrate SNLYFQS | area with substrate YNLYFQS | area with substrate PNLYFQS | area with substrate RNLYFQS
1 | MGESLFKGPRDYNPISSSICHLTNESDGHTTSLYGIGFGPFIITNKHLFRRNNGTLVVQSLHHVFKVKDTTTLQQHLVDGRDMIIIRMPKDFPPFPQKLKFREPQREERICLVTTNFQTKSMSSMVSDTSCTFPSGDGIFWKHWIQTKDGQCGSPLVSTRDGFIVGIHSASNFTNTNNYFTSVPKNFMELLTNQEAQQWVSGWRLNADSVLWGGHKVFMVKPEEPFQPVKEATQL [G63H] | 0.0714 | 0.0793 | 0.0653 | 0.067 | 0.0696 | 0.0576 | 0.0634 | 0.0626 | 0.0669 | 0.0574 |  |  |  |  |  |  |  | 
2 | MGESLFKGPRDYNPISSSICHLTNESDGHTTSLYGIGFGPFIITNKHLFRRNNGTLVVQSLHGVMKVKDTTTLQQHLVDGRDMIIIRMPKDFPPFPQKLKFREPQREERICLVTTNFQTKSMSSMVSDTSCTFPSGDGIFWKHWIQTKDGQCGSPLVSTRDGFIVGIHSASNFTNTNNYFTSVPKNFMELLTNQEAQQWVSGWRLNADSVLWGGHKVFMVKPEEPFQPVKEATQL [F65M] | 0.0577 | 0.0804 |  |  | 0.0746 | 0.0636 | 0.0673 | 0.0669 | 0.075 | 0.0642 | 0.067 | 0.0596 | 0.067 | 0.0654 | 0.064 | 0.0646 |  | 
3 | MGESLFKGPRDYNPISSSICHLTNESDGHTTSLYGIGFGPFIITNKHLFRRNNGTLVVQSLHGVFKVKDGTTLQQHLVDGRDMIIIRMPKDFPPFPQKLKFREPQREERICLVTTNFQTKSMSSMVSDTSCTFPSGDGIFWKHWIQTKDGQCGSPLVSTRDGFIVGIHSASNFTNTNNYFTSVPKNFMELLTNQEAQQWVSGWRLNADSVLWGGHKVFMVKPEEPFQPVKEATQL [T70G] | 0.0668 | 0.0746 |  | 0.0653 |  | 0.0611 | 0.0595 | 0.0448 |  | 0.0545 | 0.0527 | 0.0767 | 0.0677 |  |  | 0.0704 | 0.0652 | 
4 | MGESLFKGPRDYNPISSSICHLTNESDGHTTSLYGIGFGPFIITNKHLFRRNNGTLVVQSLHGVFKVKDQTTLQQHLVDGRDMIIIRMPKDFPPFPQKLKFREPQREERICLVTTNFQTKSMSSMVSDTSCTFPSGDGIFWKHWIQTKDGQCGSPLVSTRDGFIVGIHSASNFTNTNNYFTSVPKNFMELLTNQEAQQWVSGWRLNADSVLWGGHKVFMVKPEEPFQPVKEATQL [T70Q] | 0.0619 | 0.0756 |  |  | 0.0696 |  | 0.0767 | 0.0565 | 0.0549 | 0.0578 | 0.0553 | 0.0407 |  | 0.0548 | 0.0574 | 0.0591 |  | 
5 | MGESLFKGPRDYNPISSSICHLTNESDGHTTSLYGIGFGPFIITNKHLFRRNNGTLVVQSLHGVFKVKDHTTLQQHLVDGRDMIIIRMPKDFPPFPQKLKFREPQREERICLVTTNFQTKSMSSMVSDTSCTFPSGDGIFWKHWIQTKDGQCGSPLVSTRDGFIVGIHSASNFTNTNNYFTSVPKNFMELLTNQEAQQWVSGWRLNADSVLWGGHKVFMVKPEEPFQPVKEATQL [T70H] | 0.0439 | 0.0668 | 0.0575 |  |  |  | 0.0625 |  |  |  |  | 0.0611 |  |  | 0.0587 | 0.0589 | 0.0588 | 
6 | MGESLFKGPRDYNPISSSICHLTNESDGHTTSLYGIGFGPFIITNKHLFRRNNGTLVVQSLHGVFKVCDTTTLQQHLVDGRDMIIIRMPKDFPPFPQKLKFREPQREERICLVTTNFQTKSMSSMVSDTSCTFPSGDGIFWKHWIQTKDGQCGSPLVSTRDGFIVGIHSASNFTNTNNYFTSVPKNFMELLTNQEAQQWVSGWRLNADSVLWGGHKVFMVKPEEPFQPVKEATQL [K68C] | 0.0902 | 0.0755 |  |  | 0.0699 | 0.0681 |  |  |  | 0.0619 | 0.0451 | 0.0573 |  |  |  | 0.063 | 0.0283 | 
7 | MGESLFKGPRDYNPISSSICHLTNESDGHTTSLYGIGFGPFIITNKHLFRRNNGTLVVQSLHGVFKVVDTTTLQQHLVDGRDMIIIRMPKDFPPFPQKLKFREPQREERICLVTTNFQTKSMSSMVSDTSCTFPSGDGIFWKHWIQTKDGQCGSPLVSTRDGFIVGIHSASNFTNTNNYFTSVPKNFMELLTNQEAQQWVSGWRLNADSVLWGGHKVFMVKPEEPFQPVKEATQL [K68V] | 0.0627 | 0.0694 | 0.0645 | 0.0626 | 0.0799 |  |  | 0.0656 | 0.0506 | 0.0592 |  | 0.0606 | 0.0664 |  |  | 0.0691 | 0.0596 | 
8 | MGESLFKGPRDYNPISSSICHLTNESDGHTTSLYGIGFGPFIITNKHLFRRNNGTLVVQSLHGVFKVKDTTTSQQHLVDGRDMIIIRMPKDFPPFPQKLKFREPQREERICLVTTNFQTKSMSSMVSDTSCTFPSGDGIFWKHWIQTKDGQCGSPLVSTRDGFIVGIHSASNFTNTNNYFTSVPKNFMELLTNQEAQQWVSGWRLNADSVLWGGHKVFMVKPEEPFQPVKEATQL [L73S] | 0.05 | 0.0624 |  |  |  | 0.0547 |  | 0.0588 | 0.0657 | 0.057 | 0.0583 |  | 0.0725 |  |  | 0.0493 | 0.0522 | 0.0477
9 | MGESLFKGPRDYNPISSSICHLTNESDGHTTSLYGIGFGPFIITNKHLFRRNNGTLVVQSLHGVFKVKDTTTTQQHLVDGRDMIIIRMPKDFPPFPQKLKFREPQREERICLVTTNFQTKSMSSMVSDTSCTFPSGDGIFWKHWIQTKDGQCGSPLVSTRDGFIVGIHSASNFTNTNNYFTSVPKNFMELLTNQEAQQWVSGWRLNADSVLWGGHKVFMVKPEEPFQPVKEATQL [L73T] | 0.0594 | 0.0387 | 0.0454 | 0.0495 | 0.0626 | 0.0511 | 0.0586 | 0.0567 | 0.055 | 0.0565 | 0.0452 | 0.0496 |  |  | 0.0527 | 0.0363 | 0.0579 | 

— the supplement of paper PMC12217912
